This is an account of results in the RNAGym collection of RNA variant scans (doi:10.7554/elife.90254).

The source gives no read counts; variants with many changes may rest on few reads.

B1: LINE1-mini (parent)
chain: GGCAGAGCUCAACACAGCGUGGCAAAGUGGCUGUGGCUAGACUGCC

This series covers variants of B1. The series is described as follows: self-cleavage, relative activity (ratio to wild type); higher = more cleavage; in vitro, sequencing; the parent is a self-cleaving ribozyme.
For the variant GGUAGAGCUCAGCACAACGUGGCAAAGUGCCUGUGACUAGACUGAC [C3U A12G G17A G30C G36A C45A], the self-cleavage was 0.01. Turning to GGUAGAGCUCAUAACACCGUGGCAAAGUGGCUGUGGCUAGACUGCC [C3U A12U C13A G17C], the self-cleavage stood at 0.08. In the case of GGUAGAGCUCAACUGAGCGUGCCAAAGUGGCUGUGGCUAGAAUGCC [C3U A14U C15G G22C C42A] it was 0.

Regarding GGUAGAGCUCACCACAGCGUCGCAAAGUGGCUGUGGCUAGACUGCA [C3U A12C G21C C46A], the self-cleavage amounted to 0.03.

For the variant GGUAGGGCUCAACACUGCGGGGCAAAGUGGCUGUGGCGAGACUGCC [C3U A6G A16U U20G U38G], the self-cleavage is 0.1.

As to GGUAGAGCUCAACGCAGCGUGGCAAAGUGGCUUUGGCUAGACUGCC [C3U A14G G33U], the self-cleavage came to 0.06. For GGUUGAGCUCAACACAGCGUGGCAAAGCGGCUCUGGCUAGUCUGCC [C3U A4U U28C G33C A41U], the self-cleavage came out at 0.12.

On to GGUAGGGCUCAACACAGCGUGUCAAAGUGGCUGUGGCUAGACUGCC [C3U A6G G22U], for which the self-cleavage worked out at 0.24. In the case of GGUAGAGCUCACCACAGCGUUGCAGAGUGGCUGGGGCUAGACUGCC [C3U A12C G21U A25G U34G] it was 0.01; in that of GGUAGAGCUCACCACAUCGCCGCAAAGUGGCUGUGGCUAGACUGGC [C3U A12C G17U U20C G21C C45G], 0.04; in that of GGUAGAGCUCACGACAGCGUGGCAAAGUGGCUGUGGCUAGACUACC [C3U A12C C13G G44A], 0.02. Turning to GGUAGUGAUCAACACAGCGUGGCAAAGUUGCUGUGACUAGACUGCC [C3U A6U C8A G29U G36A], the self-cleavage was 1.03.

With GGUAGAGCUCAACUCAGCGUGGCAAGGUGGCUGGGGCUAGACUGCC [C3U A14U A26G U34G], the self-cleavage stood at 0.7. As for GGUUGAGCUCAACACAGCGUGACAAAUUGGCUGUGGCUAGACUGCC [C3U A4U G22A G27U], the self-cleavage worked out at 0.08.

In the case of GGUAGCGCUAAACACAGCGUGGCAAAGUGUCUGUGGCUAGCGUGCC [C3U A6C C10A G30U A41C C42G], the self-cleavage was 0.01.

With GGUAGAGCUCAUCACAGCGUGUCAAAGUGGCUGUGGCUAGACUGCC [C3U A12U G22U], the self-cleavage was found to be 0.17. In the case of GGUUGAGCUCAACACAGUGUGGCAAAGUGGCUGUGGCUAGACUGCC [C3U A4U C18U] it was 0.08; in that of GGUUGAGCUCAACACAGAGUGGCAAAGUGGCUGUGGCUAGACUGCC [C3U A4U C18A], 0.12; in that of GGUAGAGCUCCACAUAGCCUGUCAAAGUGGCUGUGACUAGAAUUAC [C3U A11C C15U G19C G22U G36A C42A G44U C45A], 0.

On to GGUAGCGCUCAACACAGCGUGGCAUAGUGGCUGUGGUUAGACUGCC [C3U A6C A25U C37U], for which the self-cleavage came to 0.02.

In the case of GGUAGAGCUCAGCACAGCGUGGCAAUGUGGCUGUGGCCACACUGCC [C3U A12G A26U U38C G40C], the self-cleavage came to 0.05. Consider GGUAGAGCUCAUCACAGCGUGGCAAAGAGGCUGUGGCUAGACUGCC [C3U A12U U28A], for which the self-cleavage was found to be 0.15.

Turning to GGUUGAGCUCAACAUAGCGUGCCAAAGUGGGUGUGGCUAGGCUGCC [C3U A4U C15U G22C C31G A41G], the self-cleavage came to 0.02. Consider GGUUGAACUCAACACAGCGUGGCAAAUUGGCUCUGGCUAGACUGCC [C3U A4U G7A G27U G33C], for which the self-cleavage was found to be 0.08. As to GGUAGGGCACAACACAGCGUGGCAAAGUGGCUGUGGCUAGACUGCC [C3U A6G U9A], the self-cleavage turned out to be 0.46. As to GGUAGAGCUCAACGUUGCGUGGCAAAGUGGCUGUGGCUAGACUGCC [C3U A14G C15U A16U], the self-cleavage was found to be 0.12. Turning to GGUAGCGGUCAACACGGCGUGGCAAAGUGGCCGUGGCUAGACUGCC [C3U A6C C8G A16G U32C], the self-cleavage was determined as 0.05. GGUAGUGCUAAACACAGCGUGGCAAAGUGGCUGUGGCUAGACUGCC [C3U A6U C10A]: the self-cleavage is 0.25. In the case of GGUAGAGCUCGACACGGCGUGGCAAAGUGGCUGUGGCUUGCCUGCC [C3U A11G A16G A39U A41C], the self-cleavage was 0.03. As for GGUUUAGCUCGACACAGGGUGGCAAAGUGGUUGUGGCUAGACUUCC [C3U A4U G5U A11G C18G C31U G44U], the self-cleavage was 0.01. Turning to GGUAGAGCUCCACACAGCGUGGCAAAGUAGCUGUAGGUAGACUGCC [C3U A11C G29A G35A C37G], the self-cleavage stood at 0.01. For GGUAGAGCUCUACACAUCGUAGCAAAGUGGUUGUGGCUAGACUGCC [C3U A11U G17U G21A C31U], the self-cleavage was 0.07. For the variant GGUUUAGCUCAACACAGCGUGGCAAAGUGGCUGUGGCUAGACUGCC [C3U A4U G5U], the self-cleavage was determined as 0.22. Consider GGUAGAGCUCCCCACAGCCUGGCAAAGUGUCUUUGGCUAGACUGCC [C3U A11C A12C G19C G30U G33U], for which the self-cleavage was found to be 0. Regarding GGUUCAGCUCUCAACAGCGUGGCAAAGGGGCUGCGGCUAGGCUGCC [C3U A4U G5C A11U A12C C13A U28G U34C A41G], the self-cleavage was found to be 0.03. For GGUAGAGCUCAACCCAGCCUGGCAAAGUGGCUCUGGCUAGACUGCC [C3U A14C G19C G33C], the self-cleavage was 0.03. The figure for GGUAGAGCUCAACUCAGCGUGGCAACGUGGCUGGGGCUAGACUGCC [C3U A14U A26C U34G] is 0.76. On to GGUAGAGCUCACCACAACGUGGCAAAGUGGCUGUGGCUAGACUGUC [C3U A12C G17A C45U], for which the self-cleavage was 0. On to GGUAGAGCUCAGCACAGCGAGGCAAAGUGGCUGUGGCUAGACUGCC [C3U A12G U20A], for which the self-cleavage came to 0.01. On to GGUUGAGCUCAACACAGCGUGGCAAAGAGACUGUGGUUAGACUGCC [C3U A4U U28A G30A C37U], for which the self-cleavage was determined as 0.37.

With GGUAGCGCUCAACACAUCGUGGCAAAGUGGCUGUGCCUAGACAGCC [C3U A6C G17U G36C U43A], the self-cleavage amounted to 0.1. With GGUAGAGCUCGACAGAGCGUGGCAAAGUUGCUGUGGCUAGACUGCC [C3U A11G C15G G29U], the self-cleavage was 0.03.

Consider GGUAGAGCUCGACACAGCGUGGCAAAGUGGCUGAAGCUAGACUGCC [C3U A11G U34A G35A], for which the self-cleavage was 0.05. In the case of GGUAGAGCUCAACUCAGCGUGGCAAAGUCGCUGUGGCUAGACUGCC [C3U A14U G29C] it was 0.09; in that of GGUAGUCAUCAACAAAGCAUGGCAAAGUGGCUGUGGCUAGACUGCG [C3U A6U G7C C8A C15A G19A C46G], 1.57. On to GGUAGAGCUCGACACAGCGGAGCAAAGUGGCUGUGGCUAGACUGCC [C3U A11G U20G G21A], for which the self-cleavage amounted to 0.02.

For GGUAGAGCUCACCACAGCGUGCCAAAGUGGUUGUGGCUAGACUGCC [C3U A12C G22C C31U], the self-cleavage was determined as 0.01. GGUAGAGCUCGACACAGCGUGGCAAAGUGUCUGUGGAUAGAAUGCC [C3U A11G G30U C37A C42A]: the self-cleavage stood at 0.02. In the case of GGUAGAGCUCACCACAGCGUGGCAAAGUGUCUGUGGCUAGACUGCC [C3U A12C G30U], the self-cleavage is 0.02. In the case of GGUAGAGCUCCACACAGCGUGGCAAAGUGGCUGUAGCUAGACUGCC [C3U A11C G35A], the self-cleavage turned out to be 0.02.

Regarding GGUAGAGCUCAACUCAGCGUGGCAAAAUGGCUGUGGCUAGACUCCC [C3U A14U G27A G44C], the self-cleavage turned out to be 0.02. As to GGUAGAGCUCAUCACGGCGUGGCAAAGUUGCUGUGGCUAGACUGUC [C3U A12U A16G G29U C45U], the self-cleavage worked out at 0.14.

As for GGUAGUGCUCAACACAGCGUGGGAAAGUGGCUGUGGCUAGACUGCC [C3U A6U C23G], the self-cleavage was found to be 0.15.

Take GGUAGGGCUCAACACAGCGUCGCAAAGUGGCUGUGUGUAGACUGCC [C3U A6G G21C G36U C37G]: the self-cleavage is 0.

GGUAGAGCUCAUCACAGCGUGGCAAAGUGGCUGUGCCUAGACUGCA [C3U A12U G36C C46A]: the self-cleavage is 0.05. As for GGUAGAGCUCAACGCAGCCUGGCAACGUGGCCGUGGCUAGACUGCC [C3U A14G G19C A26C U32C], the self-cleavage is 0.03.
